Values joined by “and” are separate entries in the source; they are usually repeats but may differ in a detail not shown here. Identical values can stand only once. Among all 410,000 compounds or so, about 850 (0.21%) were called active. This list was built around the results that the source calls inconclusive (neither active nor inactive); the mix of calls is not that of the screen. The call rests on the fitted dose curve; in most records, active means well fitted inhibition curve with a large enough effect; inconclusive means small, poorly fitted or top-dose-only effect, or another doubt; inactive means no such curve, though single readings can be large or run the other way. Potencies of inconclusive entries are doubtful fits and often do not repeat.
Biological target: Glutaminase kidney isoform, mitochondrial (Homo sapiens) (UniProt O94925)
UniProt O94925, sequence (O94925 whole entry, looked up, canonical isoform): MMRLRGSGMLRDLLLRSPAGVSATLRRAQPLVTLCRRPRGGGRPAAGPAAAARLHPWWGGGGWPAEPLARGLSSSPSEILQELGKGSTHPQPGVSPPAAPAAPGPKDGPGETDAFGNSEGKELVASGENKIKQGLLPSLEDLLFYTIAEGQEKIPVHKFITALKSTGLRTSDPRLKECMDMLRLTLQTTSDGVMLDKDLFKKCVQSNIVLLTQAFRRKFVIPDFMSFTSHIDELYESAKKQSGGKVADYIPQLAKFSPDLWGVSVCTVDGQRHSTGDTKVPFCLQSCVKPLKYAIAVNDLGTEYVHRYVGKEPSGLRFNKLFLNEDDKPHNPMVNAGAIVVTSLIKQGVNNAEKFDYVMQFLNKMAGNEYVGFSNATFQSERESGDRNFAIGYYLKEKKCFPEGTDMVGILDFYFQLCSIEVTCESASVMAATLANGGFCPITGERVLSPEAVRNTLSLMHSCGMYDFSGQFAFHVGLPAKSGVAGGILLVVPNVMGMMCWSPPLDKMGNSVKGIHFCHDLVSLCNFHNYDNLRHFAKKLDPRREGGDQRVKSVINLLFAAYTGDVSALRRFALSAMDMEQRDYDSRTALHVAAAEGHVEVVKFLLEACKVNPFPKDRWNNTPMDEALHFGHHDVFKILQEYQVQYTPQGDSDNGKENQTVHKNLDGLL
Test: qHTS for Inhibitors of Glutaminase (GLS)
Details: GLS enzymatic activity, qHTS titration; series mostly up to 45.5 µM; activity change, negative = inhibition: at the top concentration
How it was run: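 Two-point fluorescence kinetic (t0, 30 min RT) for hKGA; glutamate detected via glutamate oxidase–HRP–Amplex Red. Substrate: 1 mM L-glutamine solution; buffer 45 mM KH2PO4, pH 8.2.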
On the % scale 0 is the no-effect control and ±100 the full control effect; potency means the concentration at half of the fitted maximal effect; tags describe the fitted curve by direction and shape.

Potency, inconclusive:
O=C(CNC(=S)NC(=O)c1cccs1)c1ccccc1 14.1 µM [inhibitor, single point]
O=C(NCCN1CCOCC1)C1CC(=O)N(c2ccc(Cl)cc2)C1 (centres undefined) 6.31 µM [inhibitor, single point]
O=C(Nc1ccc(F)cc1)Oc1ccccc1N1CCOCC1 3.98 µM [inhibitor, full curve]
Cc1ccc(N(C(=O)CNC(=O)c2ccco2)C(C(=O)NC2CCCCC2)c2cccnc2)cc1F (centres undefined) 25.1 µM [inhibitor, partial curve, poor fit]
COc1ccccc1N1CCN(C(=O)c2ccc(C(C)(C)C)cc2)CC1 35.5 µM [inhibitor, single point]
CCC(=O)Nc1nc(C)c(-c2csc(Nc3cccc(C(=O)O)c3)n2)s1 6.31 µM [inhibitor, partial curve]
CCOc1cc(C2NC(=O)NC2=O)ccc1O (centres undefined) 3.16 µM [inhibitor, single point]
C=CCSc1nnc2c(n1)-c1cccc3cccc-2c13 15.8 µM [inhibitor, partial curve, poor fit]
Cn1cccc1/C=N/NC(=O)c1cccnc1 22.4 µM [inhibitor, single point]
Cc1ccc(-c2n[nH]c3c2C(c2cccc(O)c2)N(c2ccc(C(=O)O)cc2)C3=O)cc1 (centres undefined) 28.2 µM [inhibitor, single point] and 35.5 µM [inhibitor, single point]
COC(=O)CC1=NN(c2ccc(OC)cc2)C(=O)C1 20 µM [inhibitor, partial curve, poor fit]
Cc1cc(C)n2nc(C(=O)OCC(=O)c3c[nH]c4ccccc34)nc2n1 35.5 µM [inhibitor, partial curve, poor fit]
Oc1ccc2c(c1)C1CCCC1(N1CCOCC1)O2 (centres undefined) 11.2 µM [inhibitor, partial curve]
CC(C)NC(=O)/C(C#N)=C/c1cccc(NC(=O)c2ccccc2Cl)c1 12.6 µM [inhibitor, partial curve, poor fit]
CC(C)(C)c1ccc(-n2nc(C(N)=O)c(O)cc2=O)cc1 35.5 µM [inhibitor, single point]
COc1cc(C(C)=O)ccc1OCCCN1CCC(Cc2ccccc2)CC1 7.08 µM [inhibitor, full curve]
CCOC(=O)[C@H]1[C@H]2COc3ccc(OC)cc3[C@@H]2N2C(=O)c3cc(OC)ccc3NC(=O)[C@@]12C 25.1 µM [inhibitor, single point]
CCc1nc2ccc(C(=O)NCc3ccc(SC)cc3)cc2nc1CC 11.2 µM [inhibitor, partial curve]
O=C(O)CCN1C(=O)/C(=C\c2ccc(OCc3ccccc3)c(OCc3ccccc3)c2)SC1=S 35.5 µM [inhibitor, single point]
O=C(COc1ccc(F)cc1)NN1C(=O)CSC1=S 14.1 µM [inhibitor, partial curve]
O=C(NNC1CC(=O)N(c2ccccc2)C1=O)c1cccnc1 (centres undefined) 0.282 µM [inhibitor, full curve, poor fit]
COc1ccc(N2C(=O)Cc3ccccc3C2=O)cc1 35.5 µM [inhibitor, single point]
CCCCCCCCCCOC(=O)Cn1c(COc2ccc(C)cc2)[n+](C)c2ccccc21 28.2 µM [inhibitor, single point]
CCCOc1ccc(C(=O)NNC(=S)NC(=O)c2cccs2)cc1 35.5 µM [inhibitor, single point]
CCN(CC)c1ccc(N)cc1S(=O)(=O)Nc1ccc(OC)cc1 12.6 µM [inhibitor, partial curve]
CC(C)(CO)NCc1ccc(Br)cc1 35.5 µM [inhibitor, single point]
Cc1ccc(NC2c3ncccc3C(=O)N2c2ccccc2C)cc1C (centres undefined) 25.1 µM [inhibitor, single point]
c1ccc(-c2csc3nnc(SCc4ccc5c(c4)OCO5)n23)cc1 35.5 µM [inhibitor, single point]
Cc1noc(/C=C/c2nn(C)cc2Cl)c1[N+](=O)[O-] 11.2 µM [inhibitor, partial curve]
COc1ccccc1NC(=O)Cn1c(=O)c(N(C)C)c(N)n(C)c1=O 12.6 µM [inhibitor, partial curve]
COc1cccc(/C=N/n2c(C3CCCCC3)n[nH]c2=S)c1OC 11.2 µM [inhibitor, partial curve]
O=C1C(Cl)=C(Oc2ccccc2)C(=O)c2ccccc21 35.5 µM [inhibitor, single point]
CCCCn1c(-c2csc(CC)c2)n[nH]c1=S 12.6 µM [inhibitor, partial curve, poor fit]
CCOC(=O)c1sc(N(Cc2ccccc2)C(=O)COC(=O)c2cnccn2)nc1C 35.5 µM [inhibitor, single point]
COc1cccc(NS(=O)(=O)c2ccc3c(c2)C2C=CCC2C(c2ccc(C(=O)O)cc2)N3)c1 (centres undefined) 35.5 µM [inhibitor, single point]
CC(=O)Nc1nc(C(F)(F)F)cs1 5.62 µM [inhibitor, single point]
Nc1ccc(C(=O)c2ccc3c(c2)OCCO3)cc1N 11.2 µM [inhibitor, partial curve, poor fit]
O=c1c2ccccc2c2ccccc2c(=O)n1Nc1ccccc1 15.8 µM [inhibitor, single point]
COc1cc2cc(Oc3ccc4ccc(=O)oc4c3)c(=O)oc2cc1OC1OC(COC(=O)CC(C)(O)CC(=O)O)C(O)C(O)C1O (centres undefined) 25.1 µM [inhibitor, single point]
COc1cc(C#N)ccc1OCC(=O)N1CCc2ccccc2C1 6.31 µM [inhibitor, single point]
O=C(/C=C/c1ccc(O)c(O)c1)NC(=O)c1ccccc1O 35.5 µM [inhibitor, single point]

Potency, active:
C[C@@H]1CC[C@]2(C(=O)O[C@@H]3O[C@H](CO)[C@@H](O)[C@H](O)[C@H]3O)CC[C@]3(C)C(=CCC4[C@@]5(C)C[C@@H](O)[C@H](O)[C@@](C)(C(=O)O[C@@H]6[C@H](O)C[C@@]7(C)C(CC[C@]8(C)C7CC=C7[C@H]9[C@](C(=O)O[C@@H]%10O[C@H](CO)[C@@H](O)[C@H](O)[C@H]%10O)(CC[C@@H](C)[C@@]9(C)O)CC[C@]78C)[C@@]6(CO)C(=O)O)C5CC[C@]43C)[C@@H]2[C@]1(C)O (some centres undefined) 7.08 µM
Cc1ccc(Sc2oc(/C=N/n3cnnc3)cc2Br)cc1 8.91 µM

Activity change, negative = inhibition, inactive:
O=c1c(C(c2ccc(Cl)cc2)c2c(O)nc3n(c2=O)CCS3)c(O)nc2n1CCS2 14.7%
c1ccc(CN2CCC3CC2c2cc(N4CCCCC4)ccc23)cc1 (centres undefined) 17%
S=C(NNc1ccnc2cc(Cl)ccc12)Nc1ccc(Cl)cc1Cl -9.92%
COc1ccccc1-c1ccc(/C=C2/C=C(CC(C)C)OC2=O)o1 20%
CCOc1ccc(NC(=O)CC2C(=O)N(C)C(=S)N2CCCc2ccccc2)cc1 (centres undefined) 6.11%
Cc1cc(NS(=O)(=O)c2ccc(NS(=O)(=O)c3ccc(CC(C)C)cc3)cc2)nc(C)n1 11.9%
Cc1ccc(CN2CCN(C3CCN(C(=O)Nc4ccccc4C(F)(F)F)CC3)C(=O)C2=O)cc1 17.7%
O=C(N/N=C/c1ccc([N+](=O)[O-])o1)c1ccc(O)cc1 4.7%
Cc1[nH]nc(C(=O)NN=Cc2ccccc2Cl)c1N=NN(C)C -6.56%
O=C(COC(=O)C(Cc1ccccc1)NC(=O)c1cccs1)NCc1ccccc1 (centres undefined) -11.8%
COc1cccc(N2C(C(C)=O)=NN(c3ccccc3)C2c2ccc(N3CCOCC3)cc2)c1 (centres undefined) 7.98%
CCCn1c(=O)c(C(=O)Nc2ccccc2C(=O)OC)c(O)c2ccccc21 0.359%
CCn1c(CNC(=O)c2ccc(OC)cc2)nnc1SCC(=O)Nc1ccc(C)cc1 -12.5%
CCOc1ccc(NC(=O)CN2CCN(C(=O)c3ccco3)CC2)cc1S(=O)(=O)N1CCCC1 2.09%
O=c1oc(-c2cccc(S(=O)(=O)N3CCOCC3)c2)nc2ccccc12 -5.13%
O=C(NNC(=O)c1cccs1)c1ccccn1 18.2%
CCOC(=O)CC(C#N)c1c[nH]c2ccccc12 (centres undefined) 31.3%
N#Cc1ccsc1NC(=O)CSc1ncn[nH]1 -4.04%
CC(=O)c1sc(NCc2ccc(C)cc2)nc1C -2.22%
O=C(CCc1nc2ccccc2c(=O)[nH]1)Nc1ccccc1N1CCCCC1 -1.49%
Cc1ccccc1NC(=O)c1nc(S(C)(=O)=O)ncc1Cl -0.726%
C=CCn1c(SCc2ccc(Cl)cc2)nc2c1c(=O)[nH]c(=O)n2C -12.1%
Cc1ccc(NC(CC(=O)c2ccccc2)c2ccc(F)cc2)cc1 (centres undefined) 7.4%
O=S(=O)(c1cccc(F)c1)N1CCN(c2nc(-c3cccnc3)nc3ccccc23)CC1 -0.736%
COc1ccccc1N1CC(C)(C)C(=O)N(C(=O)c2ccc(Cl)cc2)C1=S -19%
Cc1ccccc1-c1nc(SCC(=O)NCc2ccco2)c2c(=O)n(C)c(=O)n(C)c2n1 -1.34%
